# Assay results published in PubChem BioAssay AID652104 (National Center for Advancing Translational Sciences (NCATS), 2013).
# Among all 410,000 compounds or so, about 7,200 (1.8%) were called active. This list was built around the results that the source calls inconclusive (neither active nor inactive); the mix of calls is not that of the screen. The call rests on the fitted dose curve; in most records, active means well fitted activation curve with a large enough effect; inconclusive means small, poorly fitted or top-dose-only effect, or another doubt; inactive means no such curve, though single readings can be large or run the other way. No potency is given beside an inconclusive call; the fits are too rough.
# Assay: qHTS of TDP-43 Inhibitors; further: nearly all actives have a fitted effect of over 50% in size; on growth rescue (activation): % of control where 0% means no effect
# Details: TDP-43 expressing yeast growth rescue, BacTiter-Glo, 24 h; growth rescue (activation): at 46.1 µM (top of the series) unless noted
# Procedure, shortened: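 Growth rescue of TDP-43-toxic yeast measured as ATP luminescence (BacTiter-Glo). Cells grown to mid-log in raffinose, induced in galactose at OD600=0.02, exposed to compound 24 hr at 30 deg C.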
# Potency means the concentration at half of the fitted maximal effect; tags describe the fitted curve by direction and shape.
SMILES,Potency,growth rescue (activation)
O=C(N/N=C/c1ccccc1Br)c1ccc(CSc2cccc3cccnc23)cc1,"inconclusive [activator, partial curve]",–
CCN1CCN(c2oc(-c3ccc(OC)cc3)nc2C#N)CC1,–,inactive: -4.89%
COc1ccc(-c2cc3nc(C)c(CCC(=O)NC(C)CCc4ccco4)c(C)n3n2)c(OC)c1 (centres undefined),active: 17.8 µM,–
CC(C)c1nc(N2CCN(C(=O)c3ccccc3)CC2)c(C#N)c2c1COC(C)(C)C2,"inconclusive [activator, single point]",–
CN(C)S(=O)(=O)c1cccc(COc2ncnc3c(Cl)cc(Cl)cc23)c1,–,inactive: -6.81%
COc1ccccc1N1CCN(C(=O)c2cc3ccc4ccc(C)[nH]c4c3n2)CC1,"inconclusive [activator, partial curve]",–
CCOc1ccc(-c2cc3nc(C4CCN(C(=O)OC(C)(C)C)CC4)c(C(=O)Nc4ccc(C)cc4C)cn3n2)cc1,–,inactive: 17%
CC(CNC(=O)c1cc(COc2ccc3ncccc3c2)on1)c1ccccc1 (centres undefined),"inconclusive [activator, partial curve]",–
Nc1nnc(-c2ccc(Cl)cc2Cl)s1,active: 11.2 µM,–
CCCNC(=O)N1CCN(S(=O)(=O)c2ccc3c(ccn3C)c2)CC1,–,inactive: -0.12%
CCCN1CCN(C(c2cc3cc4c(cc3[nH]c2=O)OCO4)c2nnnn2C(C)(C)C)CC1 (centres undefined),–,inactive: 6.45%
Cc1sc2nc(CSc3ccccc3)nc(N3CCOCC3)c2c1C,active: 11.2 µM,–
COc1ccccc1CNC(=O)COc1ccc(Br)c(C)c1,active: 17.8 µM,–
CNc1nc(-c2ccc3c(c2)CCN3C(=O)c2cccc(F)c2)cs1,"inconclusive [activator, partial curve]",–
O=C(CSc1cn(CC(=O)N2CCCC2)c2ccccc12)Nc1cc(C(F)(F)F)ccc1Cl,"inconclusive [activator, full curve]",–
CCC1CN(C(=O)Nc2ccc(C(=O)O)cc2)c2cc(Cl)ccc2O1 (centres undefined),active: 12.6 µM,–
COc1cc(NC(=O)c2ccc(NC(=O)N3CCSc4ncccc43)cc2)cc(OC)c1,–,inactive: 12.5%
Cc1c(Cl)cccc1NC(=O)C1COc2ccccc2O1 (centres undefined),"inconclusive [activator, partial curve]",–
CC(=O)Nc1ccc(NC(=O)CS(=O)(=O)c2cn(CC(=O)N3CCC(C)CC3)c3ccccc23)cc1,–,inactive: -2.81%
CCCCCCCCOc1ccc(C2CC(=O)NC2=O)cc1 (centres undefined),"inconclusive [activator, single point]",–
COc1cc(/C=N/n2cnnc2)ccc1OCc1ccccc1,"inconclusive [activator, single point]",–
C/C=C/c1cccc(-c2nc(C(=O)N3CCCCC3)cc3c2[C@H](CCO)N(C(=O)NC(C)C)C3)c1,–,inactive: 1.84%
COc1ccccc1N1CCN(C(=O)COc2ccc(Cl)cc2Br)CC1,active: 14.1 µM,–
O=C(c1ccc(CS(=O)c2ccccc2Cl)o1)N1CCN(c2cccc(Cl)c2)CC1 (centres undefined),"inconclusive [activator, single point]",–
O=C(COc1cccc2ccccc12)N1CCN(c2ccccc2)CC1,–,inactive: 19%

SMILES,Potency,growth rescue (activation)
O=C(Nc1ccc(Cl)c([N+](=O)[O-])c1)ONC1=NCCCCC1,"inconclusive [activator, single point]",–
CCOC(=O)[C@@H]1[C@H]2COc3cc(OC)ccc3[C@@H]2N2C(=O)N(c3cccc(C)c3)C(=O)[C@]12C,"inconclusive [activator, partial curve]",–
CCOC(=O)c1cnc2ccc(OCC)cc2c1N(C)Cc1ccccc1,active: 22.4 µM,–
COc1ccc(-c2cc(NC=O)c3ncc(-c4cccc(C(F)(F)F)c4)n3c2)c(OC)c1,active: 15.8 µM,–
CN(Cc1ccccc1)C(=O)c1cn(C)c2ccc(S(=O)(=O)N(C)C3CCCCC3)cc2c1=O,–,inactive: 1.58%
Cc1nc(CS(=O)(=O)c2ccccc2)cc(Sc2ccc(Cl)cc2)n1,"inconclusive [activator, single point]",–
Cc1nc(NCc2cccnc2)c2c3c(sc2n1)CCCC3,–,inactive: -1.32%
O=C1CSC(c2cn(-c3ccccc3)nc2-c2cc3ccccc3oc2=O)N1Cc1ccco1 (centres undefined),–,inactive: 28.2%
Cc1ccc(CCNC(=O)CCSCc2ccccc2Cl)cc1,"inconclusive [activator, partial curve]",–
CC1(c2nnc(-c3ccc(Cl)cc3)o2)CC(c2cccc(Cl)c2)=NO1 (centres undefined),–,inactive: 23.8%
Cc1noc(C)c1COc1ccccc1C(=O)NCCc1ccc(Cl)cc1,"inconclusive [activator, single point]",–
Cc1cc2ccccc2nc1SCC(=O)NC1CCCC1,"inconclusive [activator, single point]",–
CCCCCCOc1ccc(C(=O)O)cc1,"inconclusive [activator, single point]",–
CCCCCOC(=O)Cn1c(=O)oc2ccccc21,"inconclusive [activator, partial curve]",–
O=C(NCc1ccco1)/C(=C/c1ccc(C(F)(F)F)cc1)c1nc2ccccc2[nH]1,–,inactive: 11.3%
Cc1cc(Cl)ccc1OCCCC(=O)N1CCN(S(=O)(=O)c2ccccc2)CC1,active: 14.1 µM,–
CC1=C(C)CS(=O)N(S(=O)(=O)c2ccc(Cl)cc2)C1 (centres undefined),–,inconclusive: -91.2% [activator]
O=C(Nc1ccc(C(=O)N2CCN(c3ccccc3)CC2)cc1)C1=CSCCO1,"inconclusive [activator, single point]",–
O=c1[nH][nH]c2c1[C@H](c1ccc(F)cc1)O[C@H](C1CCCCC1)C2,active: 31.6 µM,–
COc1cc(CC(C#N)(CO)c2nc3ccccc3[nH]2)ccc1OC(F)F (centres undefined),–,inactive: -16.6%
CCCN(CCC)C(=O)c1cc2c(=O)n3cccc(C)c3nc2n1C,"inconclusive [activator, partial curve]",–
COCCNC(=O)CSc1nc(-c2ccccc2C)nc2c1c(=O)n(C)c(=O)n2C,–,inactive: 24.2% [at 9.22 µM]
COc1ccc(CCC(=O)NCCc2csc(-c3ccc(Cl)cc3)n2)cc1,"inconclusive [activator, full curve, poor fit]",–
CN1C(=O)C2(SCC(=O)N2c2ccc(F)cc2)c2ccccc21 (centres undefined),–,inactive: 23.5%
CCCCCCNC(=O)O[C@H]1Cn2c(=O)n(CCCCCC)c(=O)n2[C@@H]2CN(S(=O)(=O)c3ccc(C)cc3)C[C@]12O,–,inactive: 6.29%

SMILES,Potency,growth rescue (activation)
Cc1nc2ccccc2nc(=O)c1NNc1ccc([N+](=O)[O-])cc1,–,inactive: 12.8% [at 9.22 µM]
CC(=O)N1CCc2cc(CNS(=O)(=O)c3ccc(Cl)s3)ccc21,"inconclusive [activator, partial curve]",–
CCOc1ccccc1OCC(=O)Nc1nc2ccccc2[nH]1,"inconclusive [activator, partial curve]",–
Cc1ccc(Cl)cc1-c1cc(C(=O)NCc2ccc(C(F)(F)F)cc2)[nH]n1,–,inactive: 29.9%
CC(C)(Oc1ccc(Cl)cc1)C(=O)Nc1nc2ccc(S(C)(=O)=O)cc2s1,active: 12.6 µM,–
O=C(NC1CCSC1)c1cccc(Cl)c1 (centres undefined),"inconclusive [activator, single point]",–
COC(=O)c1sccc1Oc1c(Cl)cccc1[N+](=O)[O-],active: 20 µM,–
Cc1nn(Cc2ccc([N+](=O)[O-])cc2)c(=O)n1N(C)c1ncc(C(F)(F)F)cc1Cl,"inconclusive [activator, single point]",–
CC(C)Cc1cc(C(=O)N2CCN(c3ccc(F)cc3)CC2)no1,active: 22.4 µM,–
CCN(C(=O)C1CCN(c2ncnc3c2nc2n3CCCCC2)CC1)c1cccc(Cl)c1,"inconclusive [activator, single point]",–
COc1ccc(-n2ccnc(NCc3ccc(C)cc3)c2=O)cc1OC,"inconclusive [activator, partial curve, poor fit]",–
Cc1cccc(N2CCN(c3nc4ccc(C)cc4n4cnnc34)CC2C)c1 (centres undefined),active: 35.5 µM,–
O=c1c2cc(Cl)cc(Cl)c2nc2n1CCC2,"inconclusive [activator, single point]",–
CC(C)N(C(=O)CSc1nc2ccccc2n1Cc1ccc(F)cc1)C(C)C,"inconclusive [activator, single point]",–
COc1ccc(N2CCN(C(=O)c3cc(S(=O)(=O)N4CCC(C)CC4)cn3C)CC2)cc1,–,inactive: 25%
O=C1c2ccccc2C(=O)c2c1oc(C(F)(F)F)c2C(=O)c1ccccc1,active: 3.55 µM,–
O=C(Nc1ccc(F)c(F)c1)c1ccccc1-c1ccccc1,"inconclusive [activator, single point]",–
COc1cnc(N(C)C)nc1Sc1cccc(Cl)c1,"inconclusive [activator, partial curve]",–
O=C(c1ccccc1)N(Cc1ccco1)Cc1cccs1,"inconclusive [activator, partial curve]",–
Cc1sc2ncnc(N(C)C3CCCCC3)c2c1C,active: 15.8 µM,–
Cc1ccc(C)c(Cn2c(=O)cc(C)c3c(C)nn(C)c32)c1,–,inactive: 3.29%
O=C(Nc1ccc(N2CCOCC2)c(Cl)c1)c1ccccc1Cl,"inconclusive [activator, partial curve]",–
COc1ccc(OC(C)C(=O)Nc2ccccc2C(F)(F)F)cc1 (centres undefined),"inconclusive [activator, partial curve]",–
S=C(c1ccccc1)N1CCN(C(=S)c2ccccc2)CC1,"inconclusive [activator, single point]",–
